This note sets out measurements from PubChem BioAssay AID1240 (Sanford-Burnham Center for Chemical Genomics, 2008).

Out of some 50,000 compounds screened, about 800 (1.6%) showed an effect of 50% or more. This is one part of the list.

The target in the assay is Bcl-2-like protein 10 (Homo sapiens) (UniProt Q9HD36). The experiment in a line: Phenotype converters, Bcl-B/TR3 peptide binding displacement, primary biochemical FP (AID 1240).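 Further: 0% = Bcl-B with tracer peptide and DMSO and 100% = tracer peptide lacking Bcl-B.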 The following applies: GST-Bcl-B / FITC-TR3 peptide fluorescence polarization; stronger effect = higher value; compound at 3.75 mg/L.
UniProt Q9HD36, sequence (Q9HD36 whole entry, looked up): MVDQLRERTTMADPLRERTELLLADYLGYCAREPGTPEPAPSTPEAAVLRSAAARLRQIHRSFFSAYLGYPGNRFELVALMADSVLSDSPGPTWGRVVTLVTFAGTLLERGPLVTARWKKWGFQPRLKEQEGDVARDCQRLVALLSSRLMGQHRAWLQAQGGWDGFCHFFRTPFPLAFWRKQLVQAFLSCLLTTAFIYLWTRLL
In the case of `CCN(CP(=O)(O)CN1CCOCC1)C(C)=O`, the displacement is 17.6%. With `CCOC(=O)c1c(C)n(C)c2ccc(OC(=O)C#Cc3ccccc3)cc12` the figure was 1.1%. In the case of `O=C(NCCN1CCOCC1)Nc1ccc(Cl)c(Cl)c1`, the displacement is -1.1%.

For `CN(C)/C=C1\N=C(c2cccc(Br)c2)OC1=O`, the displacement came out at 0.8%.

On to `CCOc1cccc(C2CC(=O)Nc3c2ccc2ccccc32)c1` (stereo not given), for which the displacement is -11.7%. For the molecule `Cc1ccc(N=C2NC(=O)/C(=C\c3ccc(C)o3)S2)cc1`, the displacement was -9.8%. Under `CCOc1ccc(NC(=O)CN(c2ccc(OC)c(Cl)c2)S(=O)(=O)c2ccccc2)cc1` stands 1.3%. In the case of `Cc1ccc(C(=O)Nc2ccc(NC(=O)c3ccco3)cc2)cc1C`, the displacement was -0.4%. Under `COC(=O)C1=C(C)N(c2cccc(C)c2)C(=O)/C1=C\c1ccc(C(=O)O)cc1` stands 6.9%. For `O=C(Nc1ccccc1C(=O)NC(Cc1c[nH]c2ccccc12)C(=O)O)c1ccco1` (stereo not given), the displacement is -8.9%. Consider `O=[N+]([O-])c1ccc(O)c(-c2nc(-c3ccccc3)c(-c3cccs3)[nH]2)c1`, for which the displacement stood at 16.1%.

For the molecule `COc1ccccc1OCCSc1nc2ccc(N)cc2s1`, the displacement stood at 1.6%. As to `COc1cc(/C=C2/NC(=S)NC2=O)ccc1OCc1ccc(I)cc1`, the displacement came out at 4.3%. On to `CCN1C(=O)/C(=C\c2ccc(OCc3cccc4ccccc34)cc2)SC1=S`, for which the displacement amounted to 106%. On to `CCOc1ccc(C(=O)Nc2ccc(C(C)C)cc2)cc1`, for which the displacement was found to be 7.7%. Under `O=C(Nc1c(-c2ccccc2)nc2sccn12)c1ccc(Cl)cc1` stands -0.4%; under `CC(C)c1ccc(/C=N/NS(=O)(=O)c2ccccc2)cc1`, -10.1%. For the molecule `CCOC(=O)c1c(NC(=O)c2ccc(N3C(=O)CCC3=O)cc2)sc(C)c1C`, the displacement was found to be 5.4%. As to `CCCOC(=O)c1cccc(NC(=O)COc2ccccc2OC)c1`, the displacement was -2.6%. For `CC12CN3CC(C)(CN(C1)C3c1cn(Cc3ccccc3)c3ccccc13)C2=O` (stereo not given), the displacement was determined as 6.5%. Take `CCCC(C)NC(=O)c1ccc([N+](=O)[O-])cc1Cl` (stereo not given): the displacement was -4.4%.

In the case of `COC(=O)C1=C(C)N(c2ccc(C)cc2)C(=O)/C1=C\c1cccc(OC)c1O`, the displacement is 13.7%. On to `COc1ccc(Cl)cc1NC(=O)CC(C)=O`, for which the displacement was determined as 4.5%. On to `O=C(/C=C/c1ccc(Cl)cc1Cl)Nc1ccc(C(=O)Nc2ccccc2)cc1`, for which the displacement is -6.4%. Regarding `COc1cccc(NC(=O)c2ccc3ccccc3c2)c1`, the displacement is -13.3%.

For the molecule `C=CCn1c(O)c(C=NCC2(C)CC(O)CC(C)(C)C2)c(=O)[nH]c1=S` (stereo not given), the displacement is 22.4%. With `CCCCNCCCCCCOc1c(C)cccc1C` the figure was -4%; with `C/C(=N\NC(=O)c1ccccc1Cl)c1ccc(O)cc1`, -9.3%. As for `O=C(Nc1c(C(=O)N2CCOCC2)cnn1-c1ccccc1)c1cccc(F)c1`, the displacement was -1.5%. `O=C1C2=C(Nc3ccccc3SC2c2ccc3c(c2)OCO3)c2ccccc21` (stereo not given): the displacement was -16.3%. Regarding `C=C(C)CNC(=S)NNC(=O)c1ccc(Br)cc1`, the displacement was -7.3%.

On to `O=C1C(=O)N(CCCn2ccnc2)C(c2ccccc2[N+](=O)[O-])/C1=C(\O)c1ccc(Cl)cc1` (stereo not given), for which the displacement was -3.3%. Under `CC1(C(=O)N/N=C/c2ccc3c(c2)OCO3)CC1(Br)Br` (stereo not given) stands -3.2%; under `Cc1n[nH]c(C)c1Sc1ccccc1N=Cc1cc([N+](=O)[O-])ccc1O`, 3.6%.

As for `CC1(C)NC(=O)N(CC(O)COc2cccc3ccccc23)C1=O` (stereo not given), the displacement was determined as 1.6%.

Turning to `O=C(Nc1ccccc1)Nc1nnc(/C=C/c2ccccc2)s1`, the displacement amounted to 16.7%. Regarding `CCOC(=O)c1c2c(n(C)c1CNC(C)C)C(=O)C(=O)c1ccc(Br)cc1-2`, the displacement is 12.6%.

On to `COc1ccc(C2C(C(=O)OC(C)C)=C(C)N=c3s/c(=C\c4cccs4)c(=O)n32)cc1` (stereo not given), for which the displacement turned out to be 14.9%. Turning to `O=C1NC(=S)N/C1=C/c1cc([N+](=O)[O-])cc([N+](=O)[O-])c1O`, the displacement is 6.6%. As for `Cc1c(NC(=O)Nc2ccc(Cl)cc2)c(=O)n(-c2ccccc2)n1C`, the displacement is 8%. `CCCOc1cccc(C(=O)Nc2cc(OC)c(OC)cc2C(=O)O)c1`: the displacement is -2.5%.

Turning to `O=C1N=c2ccc(Br)cc2=C1c1sc(=S)n(C(Cc2ccccc2)C(=O)O)c1O` (stereo not given), the displacement worked out at 15.6%. `CC(/C=C1\SC(=S)N(C(C(=O)O)C(C)C)C1=O)=C\c1ccccc1` (stereo not given): the displacement is -7.1%. Turning to `COc1ccc2c(c1)-c1c(ssc1=S)C(C)(C)N2C(=O)c1ccccc1OC`, the displacement turned out to be 14.8%. Under `CCOCCOCCN1C(=O)c2ccccc2C1=O` stands -11.9%; under `Cc1ccc(C2=NC(=O)/C(=C/c3ccc4c(c3)OCO4)S2)cc1`, 0.5%. Under `CC(C)c1ccc(/C=C2/C(=O)NN(c3ccc(F)cc3)C2=O)cc1` stands -6.7%; under `CCC(=O)Nc1ccc(Cl)c(-c2nc3ncccc3o2)c1`, 18.8%. With `N#CC(C#N)=Cc1cn(CC(=O)Nc2ccccc2)c2ccccc12`, the displacement is -17.6%. As for `C/C(=C\COc1cc(=O)[nH]c2ccccc12)CCC1OC(C)(C)OC1(C)C` (stereo not given), the displacement is -2.7%.

As for `CC(C)(CN1CCOCC1)NS(=O)(=O)c1ccccc1`, the displacement worked out at 16.9%. As to `Cc1cc(=O)n2[nH]c(-c3ccccc3Cl)cc2n1`, the displacement was determined as 13.1%.

`COc1ccc(C2CC(=O)C3=C(C2)Nc2ccccc2NC3c2ccc3c(c2)OCO3)cc1` (stereo not given): the displacement turned out to be 3.5%.

With `O=C(Cc1c(O)c2ccccc2[nH]c1=O)NCc1ccncc1`, the displacement came out at 43.5%. For `COc1ccccc1N(CC(=O)Nc1ccccc1Br)S(=O)(=O)c1ccccc1`, the displacement is -1.7%.

As to `COc1ccc(S(=O)(=O)N2CCN(c3ccc(Cl)cc3)CC2)cc1`, the displacement came out at 9.5%. Consider `CC(=O)NS(=O)(=O)c1ccc(NC(=O)CCCOc2ccc(Cl)cc2Cl)cc1`, for which the displacement is 12.4%. As to `O=C(Nc1ccc(Cc2ccncc2)cc1)c1ccc2ccccc2c1`, the displacement is -3.2%.

Regarding `COc1ccc(C2CC(O)C(C)C(c3ccc(OC)cc3)N2)cc1` (stereo not given), the displacement was 7.8%. On to `O=C1C2C3c4ccccc4C(c4ccccc43)C2C(=O)N1c1ccc(Br)cn1` (stereo not given), for which the displacement was -1.4%.

Turning to `CN1CCN(c2ccc([N+](=O)[O-])c(-n3nc(-c4ccc(F)cc4)c4ccccc4c3=O)c2)CC1`, the displacement worked out at 2.5%. As for `CCOC(=O)c1ccc(NC(=O)COc2ccccc2Cl)cc1`, the displacement turned out to be 1.4%. `C/C(CC1CC2=C(CC1(C)C)C(C)(C)CCC2)=N\O` (stereo not given): the displacement is 8.7%.

As for `c1ccc(CCSc2ncnc3nc[nH]c23)cc1`, the displacement was determined as 3.5%.

With `Oc1cccc(C=Nc2ccc(Cl)c(Cl)c2)c1`, the displacement was -7.8%. Turning to `O=S(=O)(NC1CCCCC1)c1ccc(Br)cc1`, the displacement was 13.4%. In the case of `COc1ccc(C2Nc3ccccc3C(=O)N2Cc2ccco2)cc1COc1c(C)cccc1C` (stereo not given), the displacement was -10.4%. For `O=C(Nc1c(-c2ccccc2)nc2ccc(Cl)cn12)c1ccco1`, the displacement was determined as 5.7%. On to `Clc1ccc(-c2nc(-c3ccccn3)no2)cc1`, for which the displacement was -18.5%. Regarding `COc1ccc(-n2sc3c(c2=S)-c2ccccc2NC3(C)C)cc1OC`, the displacement turned out to be 10.1%.
